Assay results published in the supplement of paper PMC7826260.
This is one part of the list. Viral Rep nickase domains cut single-stranded DNA in vitro at 3 µM enzyme and 37 °C for 1 h; the strands have 90 letters, of which the middle is given. A value is the log2 ratio of uncut reads to the pool without enzyme; strong cutting gives strongly negative numbers. There is no active / inactive call. The scaling is to total reads; uncut strands gain when others are lost, and binding without cutting may add a little.

Tests used:
Assay in all cases: uncleaved DNA left, log2 of reads against the no-enzyme library (log2 ratio); higher = less cleavage (more negative = more Rep cleavage of the k-mer); sequences stand for … in CTCGTCCG…ACCGGAGA
[1] = system: T1, Rep nickase domain of Muscovy duck circovirus
T1 sequence (Rep 1-111, printed without the tag): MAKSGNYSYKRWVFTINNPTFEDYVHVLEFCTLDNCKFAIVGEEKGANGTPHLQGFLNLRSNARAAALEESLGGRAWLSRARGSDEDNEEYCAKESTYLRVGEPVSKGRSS
Protocol: (§1)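 A pool of 90-nt single-stranded DNAs with seven random bases just before the constant AC of the nick site (name = the seven bases) was cut by 3 µM recombinant His6-SUMO-tagged Rep nickase domain (300 nM DNA, 50 mM HEPES pH 8.0, 50 mM NaCl, 1 mM MnCl2, 1 h, 37 °C, three replicates). Uncut DNA was amplified and sequenced.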

[2] = system: T2, Rep nickase domain of banana bunchy top virus
T2 sequence (Rep 1-94, printed without the tag): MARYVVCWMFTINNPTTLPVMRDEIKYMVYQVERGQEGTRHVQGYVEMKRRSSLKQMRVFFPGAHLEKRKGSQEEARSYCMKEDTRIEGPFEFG
Protocol: as §1

[3] = system: T3, Rep nickase domain of cabbage leaf curl virus
T3 sequence (Rep 1-116, printed without the tag): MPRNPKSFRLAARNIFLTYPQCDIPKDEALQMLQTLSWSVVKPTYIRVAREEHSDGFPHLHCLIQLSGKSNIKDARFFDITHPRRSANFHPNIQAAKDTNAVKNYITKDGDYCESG
Protocol: as §1

[4] = system: T4, Rep nickase domain of chickpea chlorotic dwarf virus
T4 sequence (Rep 1-124, printed without the tag): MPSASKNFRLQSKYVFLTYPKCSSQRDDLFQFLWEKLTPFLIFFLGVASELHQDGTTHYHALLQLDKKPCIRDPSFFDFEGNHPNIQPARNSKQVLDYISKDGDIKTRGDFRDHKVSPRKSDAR
Protocol: as §1

[5] = system: T5, Rep nickase domain of faba bean necrotic yellows virus
T5 sequence (Rep 1-98, printed without the tag): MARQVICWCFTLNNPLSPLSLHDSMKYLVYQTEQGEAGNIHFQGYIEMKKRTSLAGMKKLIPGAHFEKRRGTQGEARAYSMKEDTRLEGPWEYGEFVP
Protocol: as §1

[6] = system: T6, Rep nickase domain of maize striate mosaic virus
T6 sequence (Rep 1-117, printed without the tag): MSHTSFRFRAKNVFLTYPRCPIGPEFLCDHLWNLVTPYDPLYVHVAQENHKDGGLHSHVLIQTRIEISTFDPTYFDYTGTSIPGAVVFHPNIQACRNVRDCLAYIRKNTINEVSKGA
Protocol: as §1

[7] = system: T7, Rep nickase domain of porcine circovirus 2
T7 sequence (Rep 2-116, printed without the tag): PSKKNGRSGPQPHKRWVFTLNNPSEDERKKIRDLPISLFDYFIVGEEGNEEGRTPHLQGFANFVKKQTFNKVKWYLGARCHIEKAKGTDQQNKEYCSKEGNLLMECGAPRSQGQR
Protocol: as §1

[8] = system: T8, Rep nickase domain of tomato golden mosaic virus
T8 sequence (Rep 1-124, printed without the tag): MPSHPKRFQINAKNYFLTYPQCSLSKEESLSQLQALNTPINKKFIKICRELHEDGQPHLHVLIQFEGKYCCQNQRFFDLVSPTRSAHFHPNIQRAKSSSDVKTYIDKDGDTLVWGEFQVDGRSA
Protocol: as §1

[9] = system: T9, Rep nickase domain of tomato yellow leaf curl virus
T9 sequence (Rep 1-136, printed without the tag): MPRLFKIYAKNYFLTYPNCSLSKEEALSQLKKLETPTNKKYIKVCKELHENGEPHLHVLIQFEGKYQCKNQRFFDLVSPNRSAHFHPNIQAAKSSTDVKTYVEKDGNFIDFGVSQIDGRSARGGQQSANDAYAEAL
Protocol: as §1

[10] = system: T10, Rep nickase domain of wheat dwarf virus
T10 sequence (Rep 1-137, printed without the tag): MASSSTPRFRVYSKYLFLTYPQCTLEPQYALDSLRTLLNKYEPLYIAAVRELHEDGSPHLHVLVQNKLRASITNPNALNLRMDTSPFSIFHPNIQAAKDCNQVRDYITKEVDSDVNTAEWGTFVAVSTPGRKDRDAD
Protocol: as §1

Sequence | uncleaved DNA left (log2) [1] | uncleaved DNA left (log2) [2] | uncleaved DNA left (log2) [3] | uncleaved DNA left (log2) [4] | uncleaved DNA left (log2) [5] | uncleaved DNA left (log2) [6] | uncleaved DNA left (log2) [7] | uncleaved DNA left (log2) [8] | uncleaved DNA left (log2) [9] | uncleaved DNA left (log2) [10]
ATGGCGT | 0.0751 | -0.131 | -0.851 | -0.303 | -0.114 | -0.703 | 0.0619 | -0.0609 | -0.118 | -0.189
TGAGTGA | 0.0371 | -0.075 | -0.156 | 0.314 | -0.0196 | 0.00763 | -0.077 | 0.0637 | -0.00476 | -0.0279
TTGCGCG | -0.188 | -0.0589 | -1.01 | 0.145 | -0.0569 | -0.959 | -0.245 | -0.0708 | -0.228 | -0.167
GTCGTGC | 0.0887 | 0.0711 | 0.305 | 0.63 | 0.0126 | 0.835 | 0.0996 | 0.0886 | 0.114 | 0.0456
